Paper PMC5919408
No constants are given. Whether binding was seen depends on the method and setting. In cells and extracts the contact can be indirect. Some results given as binding are weak or reduced against the parent protein; the word gives no strength. For part of these data: Tags and fused reporters may be left off the sequences shown.

Sequences of proteins named here, by UniProt entry; tags and fusion partners are left off.
UniProt P35169: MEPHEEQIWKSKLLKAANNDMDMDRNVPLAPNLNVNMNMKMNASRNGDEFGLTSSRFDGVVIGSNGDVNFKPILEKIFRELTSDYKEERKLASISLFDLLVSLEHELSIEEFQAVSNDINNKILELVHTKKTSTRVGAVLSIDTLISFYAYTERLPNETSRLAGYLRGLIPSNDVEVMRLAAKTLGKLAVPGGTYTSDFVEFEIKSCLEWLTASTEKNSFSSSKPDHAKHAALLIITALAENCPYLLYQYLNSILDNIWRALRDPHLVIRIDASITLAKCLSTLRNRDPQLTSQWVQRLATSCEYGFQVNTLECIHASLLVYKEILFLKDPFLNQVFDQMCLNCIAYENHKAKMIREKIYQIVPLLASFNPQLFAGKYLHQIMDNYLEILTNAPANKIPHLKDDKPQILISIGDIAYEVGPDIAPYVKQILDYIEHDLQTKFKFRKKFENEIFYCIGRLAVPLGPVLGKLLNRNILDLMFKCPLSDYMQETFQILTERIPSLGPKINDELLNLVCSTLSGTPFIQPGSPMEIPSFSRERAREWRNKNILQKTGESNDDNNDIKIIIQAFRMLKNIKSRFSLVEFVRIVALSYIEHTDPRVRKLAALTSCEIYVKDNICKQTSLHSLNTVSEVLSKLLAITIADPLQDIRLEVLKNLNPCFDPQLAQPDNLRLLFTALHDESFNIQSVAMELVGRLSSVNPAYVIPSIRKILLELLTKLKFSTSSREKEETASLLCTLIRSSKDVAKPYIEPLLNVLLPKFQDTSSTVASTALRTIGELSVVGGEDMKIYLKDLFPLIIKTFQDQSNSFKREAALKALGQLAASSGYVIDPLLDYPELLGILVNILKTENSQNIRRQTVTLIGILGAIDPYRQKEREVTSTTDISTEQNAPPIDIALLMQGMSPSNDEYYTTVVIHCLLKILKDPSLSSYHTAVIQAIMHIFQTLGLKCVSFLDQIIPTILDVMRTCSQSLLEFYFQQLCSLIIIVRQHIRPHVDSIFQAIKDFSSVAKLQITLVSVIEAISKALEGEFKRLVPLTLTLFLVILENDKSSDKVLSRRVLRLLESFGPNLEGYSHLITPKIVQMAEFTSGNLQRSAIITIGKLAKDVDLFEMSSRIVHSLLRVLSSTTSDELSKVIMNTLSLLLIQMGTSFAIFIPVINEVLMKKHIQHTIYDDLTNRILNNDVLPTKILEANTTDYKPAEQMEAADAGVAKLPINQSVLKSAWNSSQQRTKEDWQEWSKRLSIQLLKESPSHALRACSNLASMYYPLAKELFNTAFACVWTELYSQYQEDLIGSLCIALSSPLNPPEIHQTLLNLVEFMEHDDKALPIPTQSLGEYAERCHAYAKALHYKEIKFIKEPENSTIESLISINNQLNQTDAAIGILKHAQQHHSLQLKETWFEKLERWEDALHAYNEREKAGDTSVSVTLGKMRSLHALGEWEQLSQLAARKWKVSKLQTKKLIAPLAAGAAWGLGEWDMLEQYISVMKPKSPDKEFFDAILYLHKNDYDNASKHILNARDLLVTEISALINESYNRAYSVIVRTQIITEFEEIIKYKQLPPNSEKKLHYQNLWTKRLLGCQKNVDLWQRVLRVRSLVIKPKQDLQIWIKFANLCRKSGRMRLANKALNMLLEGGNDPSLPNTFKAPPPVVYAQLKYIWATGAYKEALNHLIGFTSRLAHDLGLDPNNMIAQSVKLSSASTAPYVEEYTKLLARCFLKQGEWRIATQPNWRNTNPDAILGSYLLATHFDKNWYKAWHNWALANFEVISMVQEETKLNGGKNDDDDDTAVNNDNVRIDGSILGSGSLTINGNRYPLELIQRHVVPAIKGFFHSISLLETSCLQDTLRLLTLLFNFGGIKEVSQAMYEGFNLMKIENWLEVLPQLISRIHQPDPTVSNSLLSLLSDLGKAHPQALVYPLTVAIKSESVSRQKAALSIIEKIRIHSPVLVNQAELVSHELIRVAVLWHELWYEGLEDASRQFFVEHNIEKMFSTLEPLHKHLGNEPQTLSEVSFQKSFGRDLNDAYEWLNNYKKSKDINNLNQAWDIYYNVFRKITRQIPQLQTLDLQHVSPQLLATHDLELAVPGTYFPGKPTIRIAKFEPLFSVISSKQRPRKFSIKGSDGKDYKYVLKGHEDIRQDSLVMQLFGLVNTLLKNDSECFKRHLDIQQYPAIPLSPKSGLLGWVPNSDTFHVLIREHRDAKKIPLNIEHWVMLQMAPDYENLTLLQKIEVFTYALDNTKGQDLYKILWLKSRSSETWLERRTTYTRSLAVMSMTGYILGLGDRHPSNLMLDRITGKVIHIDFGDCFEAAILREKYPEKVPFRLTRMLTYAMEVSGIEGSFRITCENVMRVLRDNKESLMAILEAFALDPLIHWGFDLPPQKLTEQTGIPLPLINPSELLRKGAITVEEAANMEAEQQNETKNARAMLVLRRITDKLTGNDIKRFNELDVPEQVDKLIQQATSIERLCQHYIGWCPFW

T1: GFP-Pib2 (S. cerevisiae) (UniProt P53191)
T1 sequence: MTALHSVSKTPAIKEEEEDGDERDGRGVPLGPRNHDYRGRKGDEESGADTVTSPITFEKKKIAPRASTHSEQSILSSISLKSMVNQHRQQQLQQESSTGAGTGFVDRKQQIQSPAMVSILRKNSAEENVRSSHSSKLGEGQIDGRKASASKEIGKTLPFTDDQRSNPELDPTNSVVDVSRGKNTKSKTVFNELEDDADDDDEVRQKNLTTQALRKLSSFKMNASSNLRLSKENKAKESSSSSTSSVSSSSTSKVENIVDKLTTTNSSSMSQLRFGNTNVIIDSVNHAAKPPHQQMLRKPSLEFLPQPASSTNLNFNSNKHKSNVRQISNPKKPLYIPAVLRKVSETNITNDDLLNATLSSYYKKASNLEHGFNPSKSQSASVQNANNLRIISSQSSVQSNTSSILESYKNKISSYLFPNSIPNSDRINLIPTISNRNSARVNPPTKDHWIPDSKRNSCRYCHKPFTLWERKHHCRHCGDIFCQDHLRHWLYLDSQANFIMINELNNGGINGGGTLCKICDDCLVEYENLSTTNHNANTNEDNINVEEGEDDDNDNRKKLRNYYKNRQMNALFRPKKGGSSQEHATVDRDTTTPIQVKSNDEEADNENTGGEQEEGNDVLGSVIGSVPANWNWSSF

T2: Gtr1-TAP (S. cerevisiae) (UniProt Q00582)
T2 sequence: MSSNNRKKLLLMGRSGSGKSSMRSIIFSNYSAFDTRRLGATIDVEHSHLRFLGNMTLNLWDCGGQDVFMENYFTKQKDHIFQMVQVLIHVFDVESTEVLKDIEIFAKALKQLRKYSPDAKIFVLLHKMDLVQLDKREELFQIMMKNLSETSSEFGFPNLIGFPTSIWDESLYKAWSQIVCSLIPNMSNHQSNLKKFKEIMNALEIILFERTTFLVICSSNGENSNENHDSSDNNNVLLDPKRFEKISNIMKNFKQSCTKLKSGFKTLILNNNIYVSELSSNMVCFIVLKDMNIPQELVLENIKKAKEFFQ

T3: GFP-Pib2^304-635 (S. cerevisiae) (UniProt P53191)
T3 sequence: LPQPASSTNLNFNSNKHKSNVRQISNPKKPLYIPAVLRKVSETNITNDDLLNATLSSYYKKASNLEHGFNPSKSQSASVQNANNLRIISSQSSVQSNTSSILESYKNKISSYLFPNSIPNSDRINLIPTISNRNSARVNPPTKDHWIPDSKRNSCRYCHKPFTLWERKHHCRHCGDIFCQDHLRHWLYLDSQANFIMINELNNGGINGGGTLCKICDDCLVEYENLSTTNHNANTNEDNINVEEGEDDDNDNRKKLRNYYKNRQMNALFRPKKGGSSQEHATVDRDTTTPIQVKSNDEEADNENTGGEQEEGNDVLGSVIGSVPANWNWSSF

T4: GFP-Pib2^1-620 (S. cerevisiae) (UniProt P53191)
T4 sequence: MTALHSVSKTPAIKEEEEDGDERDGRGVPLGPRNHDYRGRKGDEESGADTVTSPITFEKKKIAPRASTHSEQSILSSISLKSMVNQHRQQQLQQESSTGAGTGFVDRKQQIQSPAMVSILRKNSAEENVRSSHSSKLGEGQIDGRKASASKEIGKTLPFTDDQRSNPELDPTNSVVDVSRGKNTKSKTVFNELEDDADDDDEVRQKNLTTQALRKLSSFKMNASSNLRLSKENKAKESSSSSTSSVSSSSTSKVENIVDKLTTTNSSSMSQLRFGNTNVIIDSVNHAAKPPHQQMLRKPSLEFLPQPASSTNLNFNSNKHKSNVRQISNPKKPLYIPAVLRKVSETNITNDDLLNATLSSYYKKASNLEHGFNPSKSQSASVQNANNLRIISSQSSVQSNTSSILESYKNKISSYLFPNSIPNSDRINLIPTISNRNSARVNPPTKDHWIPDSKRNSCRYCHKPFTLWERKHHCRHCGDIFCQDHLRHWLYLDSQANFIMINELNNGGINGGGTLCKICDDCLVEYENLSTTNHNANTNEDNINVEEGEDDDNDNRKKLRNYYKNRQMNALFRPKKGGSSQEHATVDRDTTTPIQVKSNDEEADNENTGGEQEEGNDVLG

T5: GFP-Pib2^165-635 (S. cerevisiae) (UniProt P53191)
T5 sequence: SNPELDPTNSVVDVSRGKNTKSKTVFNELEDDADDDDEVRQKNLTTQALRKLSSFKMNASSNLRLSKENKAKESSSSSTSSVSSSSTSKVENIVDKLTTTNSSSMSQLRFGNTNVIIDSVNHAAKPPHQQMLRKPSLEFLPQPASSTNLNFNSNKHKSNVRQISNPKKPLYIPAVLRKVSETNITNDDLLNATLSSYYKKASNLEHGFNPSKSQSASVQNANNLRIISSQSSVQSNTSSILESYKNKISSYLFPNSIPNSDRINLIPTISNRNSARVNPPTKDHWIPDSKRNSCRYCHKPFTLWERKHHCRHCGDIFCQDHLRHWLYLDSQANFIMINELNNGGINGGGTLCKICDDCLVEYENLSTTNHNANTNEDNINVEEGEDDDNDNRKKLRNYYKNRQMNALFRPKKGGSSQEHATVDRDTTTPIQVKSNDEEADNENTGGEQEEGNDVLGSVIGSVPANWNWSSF


Legend:
[1] = target: T1, GFP-Pib2 (S. cerevisiae); experiment: co-IP; GFP-Pib2 precipitated with GFP-Trap from extracts of cells with an additional copy of GTR1-TAP (pRS316-GTR1-TAP); Rag buffer (40 mM Na-HEPES pH 7.4, 5 mM MgCl2, 150 mM NaCl) instead of TAP-A buffer; western blot
[2] = target: T2, Gtr1-TAP (S. cerevisiae); experiment: co-IP; Gtr1-TAP precipitated with IgG-Dynabeads from extracts of cells with an additional copy of GTR1-TAP (pRS316-GTR1-TAP); Rag buffer (40 mM Na-HEPES pH 7.4, 5 mM MgCl2, 150 mM NaCl) instead of TAP-A buffer; western blot
[3] = target: T3, GFP-Pib2^304-635 (S. cerevisiae); experiment: co-IP; truncation mutants of GFP-Pib2 in Δpib2 cells precipitated with GFP-Trap; 60 mM glutamine in all buffers; western blot
[4] = target: T4, GFP-Pib2^1-620 (S. cerevisiae); experiment: as above
[5] = target: T5, GFP-Pib2^165-635 (S. cerevisiae); experiment: as above
[6] = target: T2, Gtr1-TAP (S. cerevisiae); experiment: co-IP; Gtr1-TAP precipitated with rabbit IgG-coupled Dynabeads from yeast cell extracts; TAP-A buffer with 0.2% Triton X-100, 4°C; western blot
[7] = target: T1, GFP-Pib2 (S. cerevisiae); experiment: co-IP; GFP-Pib2 precipitated with magnetic GFP-Trap-M beads from yeast cell extracts; TAP-A buffer (50 mM Tris-HCl pH 8.0, 150 mM NaCl, 10% glycerol, 1 mM DTT, 1 mM EDTA) with 0.2% Triton X-100, 4°C; western blot; in Fig 5 and S5 Fig L-glutamine, D-glutamine or L-leucine added to all buffers
[8] = target: GFP-Tor1 (S. cerevisiae) (UniProt P35169); experiment: co-IP; GFP-Tor1 precipitated with GFP-Trap from extracts of cells expressing GFP-Tor1 and TAP-Pib2; cells grown in YPD, shifted to nitrogen-free YMM, glutamine added at various concentrations; western blot

Row | Molecule | binding [1] | binding [2] | binding [3] | binding [4] | binding [5] | binding [6] | binding [7] | binding [8]
1 | Tor1 (endogenous) (from UniProt P35169 1-2470) | binds | binds | binds | binds | binds | binds | binds | 
2 | GFP-Pib2 (protein, UniProt P53191 1-635) MTALHSVSKTPAIKEEEEDGDERDGRGVPLGPRNHDYRGRKGDEESGADTVTSPITFEKKKIAPRASTHSEQSILSSISLKSMVNQHRQQQLQQESSTGAGTGFVDRKQQIQSPAMVSILRKNSAEENVRSSHSSKLGEGQIDGRKASASKEIGKTLPFTDDQRSNPELDPTNSVVDVSRGKNTKSKTVFNELEDDADDDDEVRQKNLTTQALRKLSSFKMNASSNLRLSKENKAKESSSSSTSSVSSSSTSKVENIVDKLTTTNSSSMSQLRFGNTNVIIDSVNHAAKPPHQQMLRKPSLEFLPQPASSTNLNFNSNKHKSNVRQISNPKKPLYIPAVLRKVSETNITNDDLLNATLSSYYKKASNLEHGFNPSKSQSASVQNANNLRIISSQSSVQSNTSSILESYKNKISSYLFPNSIPNSDRINLIPTISNRNSARVNPPTKDHWIPDSKRNSCRYCHKPFTLWERKHHCRHCGDIFCQDHLRHWLYLDSQANFIMINELNNGGINGGGTLCKICDDCLVEYENLSTTNHNANTNEDNINVEEGEDDDNDNRKKLRNYYKNRQMNALFRPKKGGSSQEHATVDRDTTTPIQVKSNDEEADNENTGGEQEEGNDVLGSVIGSVPANWNWSSF |  | no binding |  |  |  | no binding |  | 

Next, values leading:

Row | binding [1] | binding [2] | binding [3] | binding [4] | binding [5] | binding [6] | binding [7] | binding [8] | Molecule
3 | no binding |  |  |  |  |  | no binding |  | Gtr1-TAP (protein, UniProt Q00582 1-310) MSSNNRKKLLLMGRSGSGKSSMRSIIFSNYSAFDTRRLGATIDVEHSHLRFLGNMTLNLWDCGGQDVFMENYFTKQKDHIFQMVQVLIHVFDVESTEVLKDIEIFAKALKQLRKYSPDAKIFVLLHKMDLVQLDKREELFQIMMKNLSETSSEFGFPNLIGFPTSIWDESLYKAWSQIVCSLIPNMSNHQSNLKKFKEIMNALEIILFERTTFLVICSSNGENSNENHDSSDNNNVLLDPKRFEKISNIMKNFKQSCTKLKSGFKTLILNNNIYVSELSSNMVCFIVLKDMNIPQELVLENIKKAKEFFQ
4 |  |  |  |  |  |  |  | binds | TAP-Pib2 (protein, UniProt P53191 1-635) MTALHSVSKTPAIKEEEEDGDERDGRGVPLGPRNHDYRGRKGDEESGADTVTSPITFEKKKIAPRASTHSEQSILSSISLKSMVNQHRQQQLQQESSTGAGTGFVDRKQQIQSPAMVSILRKNSAEENVRSSHSSKLGEGQIDGRKASASKEIGKTLPFTDDQRSNPELDPTNSVVDVSRGKNTKSKTVFNELEDDADDDDEVRQKNLTTQALRKLSSFKMNASSNLRLSKENKAKESSSSSTSSVSSSSTSKVENIVDKLTTTNSSSMSQLRFGNTNVIIDSVNHAAKPPHQQMLRKPSLEFLPQPASSTNLNFNSNKHKSNVRQISNPKKPLYIPAVLRKVSETNITNDDLLNATLSSYYKKASNLEHGFNPSKSQSASVQNANNLRIISSQSSVQSNTSSILESYKNKISSYLFPNSIPNSDRINLIPTISNRNSARVNPPTKDHWIPDSKRNSCRYCHKPFTLWERKHHCRHCGDIFCQDHLRHWLYLDSQANFIMINELNNGGINGGGTLCKICDDCLVEYENLSTTNHNANTNEDNINVEEGEDDDNDNRKKLRNYYKNRQMNALFRPKKGGSSQEHATVDRDTTTPIQVKSNDEEADNENTGGEQEEGNDVLGSVIGSVPANWNWSSF
